Measurements reported in PubChem BioAssay AID1345083 (National Center for Advancing Translational Sciences (NCATS), 2018).
The whole screen tested about 94,000 compounds, of which about 6,200 (6.6%) were called active. Inconclusive means that the source gave no clear call. Such entries were picked first, then a sample of the others. The call rests on the fitted dose curve; in most records, active means well fitted inhibition curve with a large enough effect; inconclusive means small, poorly fitted or top-dose-only effect; inactive means flat fitted curve, though single readings scatter. Potencies of inconclusive entries are doubtful fits and often do not repeat.

test: Cytotoxic Profiling in HEK 293 Cell Line of Diverse Libraries Using Quantitative High-Throughput Screening; details: HEK 293 viability, ATP luminescence (CellTiter-Glo), 48-72 h; series mostly up to 115 µM; further: nearly all actives have a fitted effect of over 60% in size
In short: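 HEK 293 seeded at 250 cells/well receive compound via pintool. After 48 or 72 hr at 37 degree Celsius, 5% CO2 and 95% humidity, CellTiter-Glo is dispensed and luminescence read following 10 min at room temperature.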
Potency means the concentration at half of the fitted maximal effect; tags describe the fitted curve by direction and shape.

SMILES	Potency
CCCCCC(=O)N[C@@H](Cn1cc(F)c(=O)[nH]c1=O)C(=O)O	inactive
COc1ccc(N2CC(C(=O)NCc3cccc(F)c3)NC2=O)cc1 (configuration not stated)	inactive
Cn1ncc2c(C(=O)N3CCC(Cc4ccccc4)CC3)cc(-c3ccc(C(F)(F)F)cc3)nc21	inconclusive: 56.2 µM [inhibitor, partial curve, poor fit]
O=C([C@@H]1C[C@H](F)CN1S(=O)(=O)Cc1cccc(Cl)c1)N1CCc2ccccc2C1	inconclusive: 70.8 µM [inhibitor, partial curve, poor fit]
COc1cccc(CN(C)Cc2ccc(-c3ccccc3)cc2)c1	inconclusive: 126 µM [inhibitor, single point]
COc1cc(NC(=O)Cn2c(-c3ccccc3)nc(C)c(CCO)c2=O)cc(OC)c1OC	inconclusive: 89.1 µM [inhibitor, single point]
CCOc1ccc(-c2cc3n(n2)CCCN(C(=O)Cn2cnc4c2c(=O)n(C)c(=O)n4C)C3)cc1	inconclusive: 35.5 µM [inhibitor, partial curve, poor fit]
COc1cccc(-c2c(C(=O)NCCc3ccc(Cl)cc3)nc3sccn23)c1	inconclusive: 79.4 µM [inhibitor, partial curve, poor fit]
CC1=C[C@@H](CN2C(=O)C(C)=C(C)C2=O)[C@H](C(C)C)C[C@H]1Cc1nc2c(C)cccc2[nH]1	active: 35.5 µM
COc1ccc(-c2nc(C3CC3)nc3c2CN(C(=O)c2ccc(C(F)(F)F)cc2)CC3)cc1	inconclusive: 79.4 µM [inhibitor, partial curve, poor fit]
COc1cccc(CNC(=O)CN2C(=O)NC3(CCCCC3)C2=O)c1	inactive
Cc1nn(-c2ccccc2)c2c1C(C1CC1)N(C1CN(C(=O)Nc3ccccc3)C1)C2=O (configuration not stated)	inconclusive: 28.2 µM [inhibitor, full curve, poor fit]
Cc1cc(F)ccc1OCC(=O)c1ccc2c(c1)N(C(C)C(=O)NCc1ccc(F)cc1)C(=O)CO2 (configuration not stated)	active: 44.7 µM
COc1ccc(NC(=O)CCC2CCCN(S(=O)(=O)c3cccc(F)c3)C2)c(OC)c1 (configuration not stated)	inconclusive: 56.2 µM [inhibitor, partial curve, poor fit]
O=C(Cn1cccc1-c1nc(-c2ccc3c(c2)OCO3)no1)NCCc1ccc(Cl)cc1	inconclusive: 89.1 µM [inhibitor, single point]
O=C1Nc2ccccc2CNC12CCN(Cc1ccc(Cl)cc1)CC2	inconclusive: 39.8 µM [inhibitor, partial curve]
COc1cccc(NC(=O)N2CCOC(CN(CC(C)C)C(=O)c3cccc(OC)c3)C2)c1 (configuration not stated)	inconclusive: 56.2 µM [inhibitor, partial curve, poor fit]
Cc1noc(-c2nc(-c3cccc(Br)c3)no2)n1	inconclusive: 56.2 µM [inhibitor, single point]
Cc1cnc(C(=O)N[C@@H]2CCC[C@@H]2C(=O)NCc2cccs2)cn1	inactive
COc1ccc(CN2CCNc3cc(Nc4ccccc4)ncc3C2)cc1	active: 70.8 µM
O=C(NCc1cccnc1)[C@@H]1C[C@@H](c2ccc(F)cc2)N(CCOc2ccccc2)C1	inconclusive: 100 µM [inhibitor, partial curve]

SMILES	Potency
Cc1cccc(-c2cccc(NC(=O)C3CCCN(C(=O)CC(F)(F)F)C3)c2)c1 (configuration not stated)	active: 31.6 µM
O[C@@H]1C[C@@H](c2nc(-c3ccc(C(F)(F)F)cc3)no2)N(Cc2cccc(OC(F)(F)F)c2)C1	active: 79.4 µM
Cc1cc(=O)n(CC(=O)Nc2ccc(Br)cc2)c(N2CCC(C)CC2)n1	active: 39.8 µM
COc1ccc(CCNC(=O)C2CN(C(C)C)C(=O)N2)cc1 (configuration not stated)	inactive
O=C(CN1C(=O)NC(c2ccc(Cl)cc2)C2=C1COC2=O)Nc1cccc(F)c1 (configuration not stated)	active: 44.7 µM
COc1ccc(-c2ccc(C(=O)NCC3CC3)cc2)nn1	inconclusive: 70.8 µM [inhibitor, full curve]
c1ccc(-c2nnc3ccc(Nc4ccc(N5CCOCC5)cc4)nn23)nc1	active: 63.1 µM
c1ccc(Oc2cc3c(cn2)NCCN(CC2CCOCC2)C3)cc1	inconclusive: 70.8 µM [inhibitor, partial curve, poor fit]
O=C(Nc1cccc(-c2nnc3n2CCCC3)c1)c1ccc(Cl)cc1	inconclusive: 44.7 µM [inhibitor, partial curve, poor fit]
CS(=O)(=O)N1CC[C@H]2C(=O)NCCCCCCN(Cc3ccncc3)[C@@H]2C1	inactive
Cc1nn(Cc2ccccc2)c(C)c1[C@@H]1C=C[C@@H](NS(=O)(=O)c2cccs2)C1	inconclusive: 63.1 µM [inhibitor, full curve]
CCCCc1ncc(CN2CCC(Oc3ccc(C(=O)NCCOC)cc3Cl)CC2)[nH]1	inactive
CCOc1cc(=O)n2c(c1C(=O)Nc1cc(F)ccc1Cl)CCCC2	inconclusive: 11.2 µM [inhibitor, full curve]
COc1cccc(CC(=O)N2CCC3(CC2)CC(Cc2nc(-c4cccnc4)no2)CCO3)c1 (configuration not stated)	inconclusive: 44.7 µM [inhibitor, partial curve, poor fit]
Cc1cc(=O)n(CC(=O)Nc2ccccc2F)c(-c2ccc(F)cc2)n1	inconclusive: 70.8 µM [inhibitor, partial curve, poor fit]
CC[C@H]1CN(S(=O)(=O)c2ccc(OC)cc2)CC[C@H]1CC(=O)NCc1cccnc1	inconclusive: 126 µM [inhibitor, single point]
CCOC(=O)C1CCCN(C(=O)C2CC(c3ccc(CC)cc3)CN(C(C)=O)C2)C1 (configuration not stated)	inconclusive: 89.1 µM [inhibitor, single point]
Cc1ccc(NC(=O)N2CCc3c(c4ccccc4n3C)C2)cc1	inconclusive: 79.4 µM [inhibitor, partial curve, poor fit]
CC(C)c1ccc(NC(=O)CCC2CCN(C(=O)c3ccccc3)CC2)cc1	inconclusive: 17.8 µM [inhibitor, full curve, poor fit]
O=C(c1ccccc1F)N1CCCC2(C1)C(=NC1CCCCC1)NC(=O)N2c1cccnc1 (configuration not stated)	inactive
COc1ccccc1-c1cccc(CN2CCCC(C(=O)NCCCc3ccccc3)C2)c1 (configuration not stated)	inconclusive: 20 µM [inhibitor, full curve, poor fit]

SMILES	Potency
COc1ccc(CN[C@H]2[C@H](O)[C@H](O)C[C@@H]2c2ccccc2)cc1	inconclusive: 126 µM [inhibitor, single point]
CC(C)CNC(=O)c1nc2cccnc2n(CCc2ccccc2)c1=O	inconclusive: 31.6 µM [inhibitor, partial curve, poor fit]
CCC(CC)c1nc(CN2C(=O)NC(c3ccc(OC)cc3)C3=C2COC3=O)no1 (configuration not stated)	inactive
O=C(Nc1cccc(Cl)c1)[C@@H]1C[C@H](c2ccc(F)cc2)N([S+](=O)([O-])C2CC2)C1	active: 79.4 µM
O=C(Cc1ccc(F)cc1)N1CCCN(CCc2ccccc2)c2ccccc21	inconclusive: 44.7 µM [inhibitor, partial curve, poor fit]
COC(=O)CNC(=O)N1c2ccccc2CC1c1nc(C(C)C)no1 (configuration not stated)	inactive
COc1ccc(NC(=O)N2C[C@@H](F)C[C@H]2C(=O)N2CCc3ccccc3C2)cc1	inactive
CCOc1ccccc1C(=O)N1[C@@H](c2ccco2)[C@@H](C(=O)O)C[C@]12CCCCN(CCOC)C2=O	inactive
COc1cccc(-c2nc(-c3c(C)noc3C)cc3cc(C)oc23)c1	inconclusive: 79.4 µM [inhibitor, partial curve]
CC(C)(C)c1cc(C[C@H]2CNCC[C@H]2CC(=O)Nc2ccccc2)no1	inconclusive: 112 µM [inhibitor, partial curve, poor fit]
O=C(c1cc(F)ccc1F)N1CCOc2ccc(CN3CCc4ccccc4C3)cc2C1	inconclusive: 56.2 µM [inhibitor, partial curve, poor fit]
Cc1ncsc1CN1CC(Oc2cccc(C(=O)N3CCOCC3)c2)C1	inconclusive: 89.1 µM [inhibitor, single point]
COc1ccc(N2CC(c3noc(-c4cccc(C)c4)n3)CC2=O)cc1 (configuration not stated)	inconclusive: 89.1 µM [inhibitor, single point]
O=C(Nc1ccccc1F)N1CC2CCC(C1)N2Cc1ccc(-c2cccnc2)cc1	inconclusive: 50.1 µM [inhibitor, partial curve, poor fit]
Cc1cc2nc3n(c(=O)c2n1CC(=O)Nc1ccccc1Cl)CCCCC3	inconclusive: 89.1 µM [inhibitor, single point]
COc1ccc(-c2cc3c(=O)n(CCNC(=O)Cc4ccc(C)cc4)ccn3n2)cc1	inconclusive: 50.1 µM [inhibitor, partial curve, poor fit]
O=C(Nc1cccc(C(F)(F)F)c1)N[C@H]1[C@H](O)[C@@H](N2CCC(Cc3ccccc3)CC2)[C@@H]2OC[C@H]1O2	inconclusive: 50.1 µM [inhibitor, partial curve, poor fit]
O=C(NCCn1cccc1-c1nc(-c2ccc3c(c2)OCO3)no1)C1(c2ccccc2)CC1	active: 44.7 µM
Cc1cccc(OCC(=O)Nc2cccc(-c3nnc4n3CCCC4)c2)c1	inconclusive: 89.1 µM [inhibitor, single point]
Cc1ccc(C(=O)Nc2ccc3c(N4CCOCC4)ncnc3c2)cc1F	inconclusive: 10 µM [inhibitor, full curve, poor fit]
